Results taken from PubChem BioAssay AID995 (National Center for Advancing Translational Sciences (NCATS), 2007).
Values joined by “and” are separate entries in the source; they are usually repeats but may differ in a detail not shown here. Equal entries are not always repeated. In all, about 72,000 compounds went through this assay and about 710 (0.99%) were called active. The shares of active, inactive and inconclusive entries below differ from those in the screen. The call rests on the fitted dose curve; in most records, active means well fitted inhibition curve with a large enough effect; inconclusive means small, poorly fitted or top-dose-only effect; inactive means no such curve, though single readings can be large or run the other way. Potencies of inconclusive entries are left out as doubtful fits.

Test: qHTS Assay for Inhibitors of the ERK Signaling Pathway using a Homogeneous Screening Assay; further: nearly all actives have a fitted effect of over 55% in size
Details: HEK293-V1b, vasopressin-stimulated pERK AlphaScreen; activity, negative = inhibition: at 57.5 µM (top of the series) unless noted
Method in brief: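 HEK293 cells stably expressing V1b receptor, seeded overnight in 1% FBS, were treated with compounds for 30 min at 37C, then stimulated 5 min with 25 nM vasopressin; phospho-ERK read by AlphaScreen SureFire after lysis.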
On the % scale 0 is the no-effect control and ±100 the full control effect; potency means the concentration at half of the fitted maximal effect; tags describe the fitted curve by direction and shape.

**Q.** Which Potency does the source give for `COc1cccc(C2=CC(c3ccc(OC)c(OC)c3OC)n3nnnc3N2)c1` (stereo unspecified) here?
**A.** inconclusive [inhibitor, single point]

**Q.** Which Potency does the source give for `CS(=O)(=O)Nc1cccc(-c2nc(NCc3cccs3)c3ccccc3n2)c1` here?
**A.** inconclusive [inhibitor, single point]

**Q.** For `CC(=O)c1c(C)nc2ccccc2c1N`, which Potency is on record?
**A.** inactive

**Q.** Which Potency does the source give for `CNc1ncnc2ccc(-c3cccc(OC)c3)cc12` here?
**A.** inactive

**Q.** For `CCc1nc(NC(C)C)c2oc3ccccc3c2n1`, which Potency is on record?
**A.** inactive

**Q.** For `CCOC(=O)c1cc(-c2ccncc2)nc2c1c(C)nn2C`, which Potency is on record?
**A.** inconclusive [inhibitor, partial curve]

**Q.** For `CC(=O)Nc1ccc(Nc2nc(C)nc3c2oc2ccccc23)cc1`, which Potency is on record?
**A.** inactive

**Q.** Which Potency does the source give for `Cc1cc2c3c(c1)C1(C(=O)N3C(C)(C)CC2C)C(C#N)=C(N)Oc2cc(O)ccc21` (stereo unspecified) here?
**A.** inconclusive [inhibitor, partial curve]

**Q.** Which Potency does the source give for `O=C(CSc1n[nH]c(=O)n1C1CC1)Nc1cc(Cl)ccc1Oc1ccccc1` here?
**A.** inconclusive [inhibitor, single point]

**Q.** With `O=c1[nH]c(SCCOc2ccccc2)nc2ccccc12` as the molecule, how does the Potency read?
**A.** inactive

**Q.** For `C[C@@]1(C(=O)O)NCCc2cc(O)c(O)cc21`, which activity, negative = inhibition is on record?
**A.** inconclusive: -34% [inhibitor]

**Q.** Which Potency does the source give for `CCO/C=N/c1c(C#N)c(CC#N)nn1-c1ccccc1` here?
**A.** inconclusive [inhibitor, partial curve]

**Q.** Which Potency does the source give for `COc1cc(O)c(C(=O)/C=C/c2ccc(OC)c(O)c2)c(OC)c1` here?
**A.** inconclusive [inhibitor, single point]

**Q.** For `COCCn1c(SCC(=O)Nc2ncc(C)s2)nc2sc3c(c2c1=O)CCC3`, which Potency is on record?
**A.** inconclusive [inhibitor, single point]

**Q.** Which Potency does the source give for `Cc1nn2c(c1-c1ccccc1)N=C(c1ccco1)CC2c1ccccc1` (stereo unspecified) here?
**A.** inconclusive [inhibitor, partial curve]

**Q.** With `COc1ccc(N2CCN(C(=O)c3cccc(N4C(=O)C5CC=CC(C)C5C4=O)c3)CC2)cc1` (stereo unspecified) as the molecule, how does the Potency read?
**A.** inconclusive [inhibitor, partial curve]

**Q.** For `Cc1cc(C(=O)CN2C(=O)c3ccccc3C2=O)c(C)n1Cc1cccs1`, which Potency is on record?
**A.** inactive

**Q.** Which Potency does the source give for `O=C=Nc1ccc(Cc2ccc(N=C=O)cc2)cc1` here?
**A.** inactive

**Q.** For `CCCCCOc1ccc(CN2CCOCC2)cc1Cl`, which Potency is on record?
**A.** inactive

**Q.** For `CN1CCN(S(=O)(=O)c2ccc(N(C)Cc3cccs3)nc2)CC1`, which Potency is on record?
**A.** inactive

**Q.** With `Cc1cccc(Cc2c(C)nc3c(C(=O)NCc4ccco4)cnn3c2C)c1` as the molecule, how does the Potency read?
**A.** inactive

**Q.** Which Potency does the source give for `Cc1ccc(NC(=O)CNc2cccc(C)c2C)c(C)c1` here?
**A.** inconclusive [inhibitor, single point]

**Q.** Which Potency does the source give for `N#C/C(=C\c1ccc(O)c(O)c1)C(=O)Nc1ccccc1` here?
**A.** inconclusive [inhibitor, partial curve]

**Q.** Which Potency does the source give for `COc1ccc(CCNc2nnc(Sc3nnnn3-c3ccccc3)s2)cc1OC` here?
**A.** inconclusive [inhibitor, single point]

**Q.** Which Potency does the source give for `CN(Cc1ccccc1)c1oc(-c2ccco2)nc1C#N` here?
**A.** inactive

**Q.** Which activity, negative = inhibition does the source give for `C=CC[C@@H]1C=C[C@H](O/N=C2\c3cc(OC)ccc3O[C@H](c3cccc(OC)c3)[C@H]2O)[C@H](CO)O1` here?
**A.** inactive: -10% [at 11.5 µM]

**Q.** With `COc1cc2c(cc1OC)C(c1ccco1)CC(=O)N2` (stereo unspecified) as the molecule, how does the Potency read?
**A.** inconclusive [inhibitor, partial curve]

**Q.** With `CC(NC(=O)c1cc2ccccc2o1)C(=O)O` (stereo unspecified) as the molecule, how does the Potency read?
**A.** inactive

**Q.** For `CS(=O)(=O)N1CCC2(CC1)CN(Cc1cc(C(F)(F)F)cc(C(F)(F)F)c1)C2`, which activity, negative = inhibition is on record?
**A.** inconclusive: -38.4% [inhibitor]

**Q.** For `O=C(Nc1ccc(NC(=O)c2ccco2)nc1)c1cccnc1`, which Potency is on record?
**A.** inactive

**Q.** For `COc1ccccc1NC(=O)CN1CCN(CC(=O)Nc2ccc(OCc3ccccc3)cc2)CC1`, which Potency is on record?
**A.** inconclusive [inhibitor, single point]

**Q.** With `Cc1ccc(-c2noc(CN(C(=O)CCCN3C(=O)c4ccccc4C3=O)C(C)C)n2)cc1` as the molecule, how does the Potency read?
**A.** inactive

**Q.** For `O=C(CN1CCCN(S(=O)(=O)c2ccc(F)cc2)CC1)Nc1ccccc1Br`, which Potency is on record?
**A.** inconclusive [inhibitor, partial curve]

**Q.** For `CCc1nc(C)cn1S(=O)(=O)c1cc(Br)c(C)cc1OC`, which Potency is on record?
**A.** inconclusive [inhibitor, partial curve]

**Q.** For `O=C(Nc1cccc(F)c1)N1CC[C@@]2(CCCN(C(=O)c3cc(C(F)(F)F)cc(C(F)(F)F)c3)C2)C1`, which Potency is on record?
**A.** inactive

**Q.** For `CCOC(=O)c1cnc(-n2nc(C)cc2C)nc1NCCc1ccccc1`, which Potency is on record?
**A.** inconclusive [inhibitor, single point]

**Q.** Which Potency does the source give for `Cc1nn(-c2nc3ccccc3[nH]2)c(N)c1-c1ccccc1` here?
**A.** inactive

**Q.** For `O=C(O)c1cc2ccc3ccccc3c2[nH]1`, which Potency is on record?
**A.** inactive

**Q.** With `COc1ccccc1C1CC(c2ccc(C)cc2)Nc2ncnn21` (stereo unspecified) as the molecule, how does the Potency read?
**A.** inconclusive [inhibitor, single point]

**Q.** With `COC(=O)N1CCC2(CC1)CN(C(c1ccccc1)c1ccccc1)C2` as the molecule, how does the activity, negative = inhibition read?
**A.** inconclusive: -33.6% [inhibitor]

**Q.** For `Cc1ccc(-c2nnc(N3CCN(C(=O)c4ccco4)CC3)c3ccccc23)cc1`, which Potency is on record?
**A.** active: 25.1 µM

**Q.** Which Potency does the source give for `N#CC1=C(N)C(C#N)(C#N)C(c2ccc[nH]2)C2CCCC=C12` (stereo unspecified) here?
**A.** inconclusive [inhibitor, single point]

**Q.** For `Cn1cccc1Cc1nnc(SCC(=O)N2CCCC2)n1CCc1ccccc1`, which Potency is on record?
**A.** inconclusive [inhibitor, partial curve]

**Q.** For `COC(=O)[C@H](CCSC)NC(=O)Nc1ccc(C)c(C)c1`, which Potency is on record?
**A.** inactive

**Q.** For `C[C@@H]1CN(CCCn2c3ccccc3c3ccccc32)C[C@H](C)N1`, which Potency is on record?
**A.** inconclusive [inhibitor, single point]

**Q.** For `Cc1cc(NC(=O)Nc2cccc(C(F)(F)F)c2)no1`, which Potency is on record?
**A.** inconclusive [inhibitor, partial curve]

**Q.** Which Potency does the source give for `COc1ccc2nc(Nc3nc(C)c(C(C)=O)s3)sc2c1` here?
**A.** inconclusive [inhibitor, single point]

**Q.** With `O=C1c2ccccc2[C@@H]([C@@H]2c3ccccc3C(=O)c3cc(Br)ccc32)c2ccc(Br)cc21` as the molecule, how does the Potency read?
**A.** inconclusive [inhibitor, single point]

**Q.** For `Cc1nnc(SC(C)C(=O)Nc2ccc(S(=O)(=O)N3CCCCCC3)cc2)s1` (stereo unspecified), which Potency is on record?
**A.** inconclusive [inhibitor, partial curve, poor fit]

**Q.** For `O=c1oc2c3c4c(cc2c2c1CCC2)OCCN4CCC3`, which Potency is on record?
**A.** inactive

**Q.** With `CC(C)CNC(=O)COC(=O)c1cc(S(=O)(=O)N2CCCCC2)ccc1N1CCOCC1` as the molecule, how does the Potency read?
**A.** inactive

**Q.** For `COC(=O)NC(c1ccco1)[C@]1(C(C)=O)CCCC1=O` (stereo partly specified), which activity, negative = inhibition is on record?
**A.** inactive: 14.7% [at 11.5 µM]

**Q.** For `CC1Cc2ccccc2N1S(=O)(=O)c1cccc(C(=O)NCCCO)c1` (stereo unspecified), which Potency is on record?
**A.** inconclusive [inhibitor, partial curve]

**Q.** For `CC(C)(O)CCC(O)[C@@](C)(O)C1CC[C@]2(O)C3=CC(=O)C4CC(O)C(O)C[C@]4(C)C3CC[C@]12C` (stereo partly specified), which Potency is on record?
**A.** inactive

**Q.** With `Cn1c(=O)c2c(nc(CN3CCN(C(=O)c4ccco4)CC3)n2Cc2ccc(Cl)cc2)n(C)c1=O` as the molecule, how does the Potency read?
**A.** inconclusive [inhibitor, single point]

**Q.** Which Potency does the source give for `Clc1ccc(OCc2cn3cccnc3n2)c2ncccc12` here?
**A.** inconclusive [inhibitor, partial curve]

**Q.** Which Potency does the source give for `COc1cc(OC)cc(C2C(C#N)=C(N)Oc3n[nH]c(-c4cccnc4)c32)c1` (stereo unspecified) here?
**A.** inconclusive [inhibitor, partial curve]

**Q.** For `O=C(Nc1ccc2nc(-c3ccco3)[nH]c2c1)c1ccco1`, which activity, negative = inhibition is on record?
**A.** inconclusive: -32% [inhibitor]

**Q.** Which Potency does the source give for `CSc1sc(C)cc1C1C(C#N)=C(N)N(c2cccnc2)C2=C1C(=O)CCC2` (stereo unspecified) here?
**A.** inconclusive [inhibitor, partial curve]

**Q.** Which Potency does the source give for `CS(=O)(=O)Nc1cccc(-c2nc(NCCN3CCOCC3)c3ccccc3n2)c1` here?
**A.** inconclusive [inhibitor, single point]

**Q.** Which Potency does the source give for `O=C(Cc1cccs1)Nc1nc(-c2ccccc2)cs1` here?
**A.** active: 10 µM

**Q.** For `COc1cc2c(cc1OC)[C@@H]1CC(=O)[C@@H](CC(C)C)CN1CC2`, which Potency is on record?
**A.** inconclusive [inhibitor, partial curve, poor fit]

**Q.** Which Potency does the source give for `c1ccc2c(Nc3ccncc3)nc(-c3ccoc3)nc2c1` here?
**A.** inconclusive [inhibitor, partial curve, poor fit]

**Q.** Which Potency does the source give for `O=C1COc2ccc(C(=O)CSc3nnc(Cc4cccs4)n3-c3ccccc3)cc2N1` here?
**A.** inconclusive [inhibitor, full curve, poor fit]

**Q.** Which Potency does the source give for `COc1cccc(Cn2c(N)c(C#N)c3nc4ccccc4nc32)c1OC` here?
**A.** inconclusive [inhibitor, partial curve, poor fit]

**Q.** Which activity, negative = inhibition does the source give for `CO[C@H]1COC(=O)C/C=C\[C@H](C)[C@H](OC)COC(=O)[C@@H](C)COC(=O)C/C=C\[C@@H]1C` here?
**A.** inactive: 0.342% [at 11.5 µM] and inactive: -10.8% [at 11.5 µM]

**Q.** Which Potency does the source give for `CN(C)c1ccc(NC(=O)c2ccc(COc3cccc(Cl)c3)o2)cc1` here?
**A.** inconclusive [inhibitor, partial curve, poor fit]

**Q.** With `CO[C@H]1COC(=O)[C@@H](OCc2ccccc2)/C=C\[C@H](C)[C@@H](OC)COC(=O)[C@H](OCc2ccccc2)/C=C\[C@@H]1C` as the molecule, how does the activity, negative = inhibition read?
**A.** inactive: 30% [at 11.5 µM]

**Q.** For `CCCCCCCCCCCCCCCC(=O)NC[C@@H](COP(=O)([O-])OCC[N+](C)(C)C)OCC`, which Potency is on record?
**A.** inconclusive [inhibitor, single point]

**Q.** Which Potency does the source give for `CCCCCC1C(=O)CCC1CC(=O)OC` (stereo unspecified) here?
**A.** inactive

**Q.** For `CC(=O)N1CCc2cc(Br)cc(S(=O)(=O)N3CCCCCC3)c21`, which Potency is on record?
**A.** inactive
